Assay results taken from patent publication US10801046B2, “Methods and materials for biosynthesizing multifunctional, multivariate molecules via carbon chain modification” (INVISTA NORTH AMERICA S.A.R.L., priority 2016, dated 2020).

Key:
Format in all cases: biochemical
[1] = Aminotransferase activity, reverse direction (7-aminoheptanoate to 7-oxoheptanoate), L-alanine formation by RP-HPLC; conditions: cell free extract, 10 mM substrate, 25° C., 4 h, against empty vector control, FIG. 48
Method: (§1) A sequence encoding an N-terminal His-tag was added to the genes from Chromobacterium violaceum, Pseudomonas syringae, Rhodobacter sphaeroides, and Vibrio Fluvialis encoding the aminotransferases of SEQ ID NOs: 116 (GenBank Accession No. AAQ59697.1), 126 (GenBank Accession No. AAY39893.1), 127 (GenBank Accession No. ABA81135.1), and 128 (GenBank Accession No. AEA39183.1), respectively such that N-terminal HIS tagged aminotransferases could be produced. Each of the resulting modified genes was cloned into a pET21a expression vector under control of the T7 promoter and each expression vector was transformed into a BL21 [DE3] E. coli host. The resulting recombinant E. coli strains were cultivated at 37° C. in a 250 mL shake flask culture containing 50 mL LB media and antibiotic selection pressure, with shaking at 230 rpm. Each culture was induced overnight at 16° C. using 1 mM IPTG.
(§2) The pellet from each induced shake flask culture was harvested via centrifugation. Each pellet was resuspended and lysed via sonication. […]
Enzyme activity assays in the reverse direction (i.e., 7-aminoheptanoate to 7-oxoheptanoate) were performed in a buffer composed of a final concentration of 50 mM HEPES buffer (pH=7.5), 10 mM 7-aminoheptanoate, 10 mM pyruvate and 100 μM pyridoxyl 5′ phosphate. […] The formation of L-alanine from pyruvate was quantified via RP-HPLC.

[2] = Aminotransferase activity, forward direction (7-oxoheptanoate to 7-aminoheptanoate), pyruvate formation by RP-HPLC; conditions: cell free extract, 10 mM substrate, 10 mM L-alanine, 25° C., 4 h, against empty vector control, FIG. 49
Method: as §1, §2
Enzyme activity in the forward direction (i.e., 7-oxoheptanoate to 7-aminoheptanoate) was confirmed for the aminotransferases of SEQ ID NO: 126 (GenBank Accession No. AAY39893.1), SEQ ID NO: 127 (GenBank Accession No. ABA81135.1), and SEQ ID NO: 128 (GenBank Accession No. AEA39183.1). […] The formation of pyruvate was quantified via RP-HPLC.

[3] = Aminotransferase activity, 7-aminoheptanol to 7-oxoheptanol, L-alanine formation by RP-HPLC; conditions: cell free extract, 10 mM substrate, 25° C., 4 h, against empty vector control, FIG. 52
Method: (§3) A nucleotide sequence encoding an N-terminal His-tag was added to the Chromobacterium violaceum, Pseudomonas syringae and Rhodobacter sphaeroides genes encoding the aminotransferases of SEQ ID NOs: 116 (GenBank Accession No. AAQ59697.1), 126 (GenBank Accession No. AAY39893.1), and 127 (GenBank Accession No. ABA81135.1), respectively such that N-terminal HIS tagged aminotransferases could be produced. The modified genes were cloned into a pET21a expression vector under the T7 promoter. Each expression vector was transformed into a BL21[DE3] E. coli host. Each resulting recombinant E. coli strain were cultivated at 37° C. in a 250 mL shake flask culture containing 50 mL LB media and antibiotic selection pressure, with shaking at 230 rpm. Each culture was induced overnight at 16° C. using 1 mM IPTG.
The pellet from each induced shake flask culture was harvested via centrifugation. Each pellet was resuspended and lysed via sonication. The cell debris was separated from the supernatant via centrifugation and the cell free extract was used immediately in enzyme activity assays.
(§4) Enzyme activity assays in the reverse direction (i.e., 7-aminoheptanol to 7-oxoheptanol) were performed in a buffer composed of a final concentration of 50 mM HEPES buffer (pH=7.5), 10 mM 7-aminoheptanol, 10 mM pyruvate, and 100 μM pyridoxyl 5′ phosphate. […] The formation of L-alanine was quantified via RP-HPLC.

[4] = Aminotransferase activity, heptane-1,7-diamine to 7-aminoheptanal, L-alanine formation by RP-HPLC; conditions: cell free extract, 10 mM substrate, 25° C., 4 h, against empty vector control, FIG. 50
Method: as §3, with “A” for “A nucleotide”, “aeruginosa, Pseudomonas syringae, Rhodobacter sphaeroides, Escherichia coli,” for “syringae”, “Vibrio fluvialis” for “Rhodobacter sphaeroides”, “AAQ59697.1), 119 (RefSeq Accession No. NP_417544.5), 125 (GenBank Accession No. AAGO8191.1),” for “AAQ59697.1),”, “AAY39893.1),” for “AAY39893.1), and”, “ABA81135.1), and 128 (GenBank Accession No. AEA39183.1),” for “ABA81135.1),”
The pellet from each induced shake flask culture was harvested via centrifugation. […]
as §4, with “heptane-1,7-diamine” for “7-aminoheptanol”, “7-aminoheptanal)” for “7-oxoheptanol)”, “heptane-1,7-diamine,” for “7-aminoheptanol,”

[5] = Aminotransferase activity, N7-acetyl-1,7-diaminoheptane to N7-acetyl-7-aminoheptanal, L-alanine formation by RP-HPLC; conditions: cell free extract, 10 mM substrate, 25° C., 4 h, against empty vector control, FIG. 51
Method: The activity of the N-terminal His-tagged aminotransferases of SEQ ID NOs: 116 (GenBank Accession No. AAQ59697.1), 119 (RefSeq Accession No. NP_417544.5), 125 (GenBank Accession No. AAGO8191.1), 126 (GenBank Accession No. AAY39893.1), 127 (GenBank Accession No. ABA81135.1), and 128 (GenBank Accession No. AEA39183.1) (see Example 6) for converting N7-acetyl-1,7-diaminoheptane to N7-acetyl-7-aminoheptanal was assayed using a buffer composed of a final concentration of 50 mM HEPES buffer (pH=7.5), 10 mM N7-acetyl-1,7-diaminoheptane, 10 mM pyruvate and 100 μM pyridoxyl 5′ phosphate. Each enzyme activity assay reaction was initiated by adding a cell free extract of the aminotransferases or the empty vector control to the assay buffer containing the N7-acetyl-1,7-diaminoheptane then incubated at 25° C. for 4 h, with shaking at 250 rpm. The formation of L-alanine was quantified via RP-HPLC.

acceptance of 7-aminoheptanoate as substrate [1]: accepted 7-aminoheptanote as substrate
acceptance of 7-oxoheptanoate as substrate, forming 7-aminoheptanoate [2]: accepted 7-oxoheptanoate as a substrate
acceptance of 7-aminoheptanol as substrate, forming 7-oxoheptanol [3]: accepted 7-aminoheptanol as a substrate
B1: SEQ ID NO: 127: Rhodobacter sphaeroides aminotransferase (protein)
chain: MTRNDATNAAGAVGAAMRDHILLPAQEMAKLGKSAQPVLTHAEGIYVHTEDGRRLIDGPAGMWCAQVGYGRREIVDAMAHQAMVLPYASPWYMATSPAARLAEKIATLTPGDLNRIFFTTGGSTAVDSALRFSEFYNNVLGRPQKKRIIVRYDGYHGSTALTAACTGRTGNWPNFDIAQDRISFLSSPNPRHAGNRSQEAFLDDLVQEFEDRIESLGPDTIAAFLAEPILASGGVIIPPAGYHARFKAICEKHDILYISDEVVTGFGRCGEWFASEKVFGVVPDIITFAKGVTSGYVPLGGLAISEAVLARISGENAKGSWFTNGYTYSNQPVACAAALANIELMEREGIVDQAREMADYFAAALASLRDLPGVAETRSVGLVGCVQCLLDPTRADGTAEDKAFTLKIDERCFELGLIVRPLGDLCVISPPLIISRAQIDEMVAIMRQAITEVSAAHGLTAKEPAAV
modifications: Rhodobacter sphaeroides; Rhodobacter sphaeroides (strain ATCC 17023 / 2.4.1 / NCIB 8253 / DSM 158)
notes: Rhodobacter sphaeroides aminotransferase
acceptance of heptane-1,7-diamine as substrate, forming 7-aminoheptanal [4]: accepted heptane-1,7-diamine as substrate
acceptance of N7-acetyl-1,7-diaminoheptane as substrate, forming N7-acetyl-7-aminoheptanal [5]: accepted N7-acetyl-1,7-diaminoheptane as a substrate
